Measurements taken from the supplement of paper PMC3334620.
Over roughly 33,000 sequences, “E-score (-0.5 to 0.5)” has its median near -0.016; the highest 2% begin near 0.31. The list shows a part of the results.

Target: Cst6 (UniProt P40535)
Assay: PBM E-score (8-mer binding enrichment) (E-score (-0.5 to 0.5)); higher = stronger / more preferred TF binding; most listed sequences are background and not binding sites
Conditions: protein concentration: 200 nM; construct: GST-DNA-binding domain
Procedure, shortened: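 Using PURExpress in vitro transcription/translation, GST-tagged yeast transcription factors were made in full-length or DNA-binding-domain form. These were applied at about 100-200 nM to double-stranded universal all-10-mer Agilent arrays, and bound protein was detected with fluorescent anti-GST. Scans were normalised with masliner before the Universal PBM Analysis Suite assigned E-scores to ungapped eight-base words pooled with their reverse complements.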

Sequence	PBM E-score
CAATACGG	0.011
CCCCCTCC	-0.268
GTGAGGCA	0.053
CTAAGGAA	0.0254
ACACATGG	-0.0272
AAACTCGA	-0.0663
CTGCTCGA	-0.185
ACCATATG	-0.0614
TAGCCCCA	-0.172
CAGAAGAC	-0.0991
CGCGTGCC	0.00965
AGGTCCAG	-0.0532
CTTTGCTA	0.0728
GCGTTTAC	-0.00768
CGCCGTAA	0.189
AAGTCCCT	-0.325
TCCCCTCA	-0.0437
GGAGAAGA	-0.11
CATTACTC	0.271
AGGAGCAG	-0.292
GTAATGAA	0.268
AAACCATT	0.105
GCTTAAAC	-0.0762
CCGCATAG	0.0013
CTCGCCAA	-0.153

Sequence	PBM E-score
ACCATGTA	0.066
ATTTGGTG	0.107
ATCACCGG	0.0668
ATTCCGTA	0.105
CCTGAGTC	-0.211
GAGAACGC	-0.123
ATGTGCCC	0.0394
TAAAGGAA	-0.0105
CGTAGACC	-0.205
CGCGTACA	-0.0415
AGTGCGTC	0.104
GACCATAA	-0.0622
ACAGTTAC	0.13
AACCACGC	-0.0201
CTATGGTA	-0.0179
ACAATATC	0.218
CGGTCGGA	-0.218
GCTCACGA	-0.018
GATTGTCC	-0.11
CCGCCGGA	-0.149
AACCAAGC	-0.127
ATGCTGTC	0.214
ATGCGTGA	0.109
AGAGCTGC	-0.225
AGTATAGC	-0.0254

Sequence	PBM E-score
GATAATCC	-0.206
AAGGTAGC	-0.198
CCTGCACG	0.0307
ATGCTACA	-0.108
CTATTGAC	0.201
CGTAAGAA	0.268
ATAAGCCA	0.0242
ACAGGTGG	-0.143
CGCCCACA	0.122
AGCGTTCG	-0.112
ATAGGGCG	0.0365
CAAGAAGC	0.151
AGGCCTCA	-0.181
AGTAAACA	0.117
GTCGTCTA	-0.169
TCCCTCGA	-0.205
CGAACGCG	0.0513
GCAACTAA	0.24
CGTTTCGC	0.148
AGGGGACT	-0.265
GTGCGCAA	-0.0799
ACCTTTGG	-0.247
GAGTTAGC	-0.00274
GCCCCGCC	0.00278
CCTTCATA	-0.00993

Sequence	PBM E-score
ACTAACGA	0.15
CGTCGTGA	-0.0311
GTCTCCAA	-0.00606
CCGACGTA	0.0226
GTACTAAA	0.168
CCTCCTAC	-0.178
ATTTTTGG	-0.0105
ACTAGTGC	-0.145
ACACTAAC	0.0573
CACACCCA	-0.00542
CGATAGAC	0.018
CTTACTAC	0.119
ATCGCCCC	-0.174
GGAGGGAC	-0.195
CAGGACTG	-0.0253
CCCCGGAC	-0.222
CACCCGGA	-0.141
CTTACAGC	0.116
CCACTCAG	-0.159
CAACGGAG	-0.151
CTTCATGA	0.0994
ATATGACC	0.108
AGCCCGCC	-0.115
GAACGCTC	-0.221
AGCAATCA	0.13

Sequence	PBM E-score
ACGCACCC	-0.108
CTCTGTAC	-0.195
ATCAGAAT	0.168
CTACGTTC	-0.0655
AGGCAGGG	-0.156
AGGAGAGG	-0.245
CAGCGAGC	0.0253
ATAGGAAT	0.0669
GAAATACC	-0.0294
GAAGCCCC	-0.32
CAGCATGG	0.0361
AGCTCGTG	-0.0841
GCCTCCAC	-0.248
ACCGATCC	-0.26
AAACGTTT	0.0411
CTGCACGA	-0.0231
CCTTTAGC	-0.14
CATACCGC	0.0301
AAACAGTA	0.0552
GCATATGA	0.263
AATGGGCG	-0.174
AAGAGTTA	0.0327
CGAGCCTA	0.011
GTCACCAA	0.315
AATGGGGA	-0.165

Sequence	PBM E-score
TGGGGGAA	-0.351
CCACGGTA	-0.166
ACGCGCTG	-0.0795
GACACAAC	0.139
TCCTAGAA	-0.0938
ATAGGGCC	-0.241
TCCGGGCA	-0.223
CCGAGTTC	-0.063
CCTCGATC	-0.163
CGATACGC	-0.0748
GAAACCAA	0.0453
AAGCGCGC	0.0196
ACGTGCTG	-0.0423
CTGTGCCC	-0.158
AGTGTTCA	0.046
GAGGAGAC	-0.261
ACCCGTCC	-0.13
ATTCTACA	0.169
AGAGGGCC	-0.25
AAATTGGG	0.0787
TACTTAGA	0.0722
ACCAGGCA	-0.212
CTAACGCC	-0.0434
GTGGGATA	-0.0138
ATCAGTGG	-0.0501

Sequence	PBM E-score
ACATTGGG	-0.176
AGGGTTAT	-0.0713
CCATGAGA	-0.0341
GCTATGTA	-0.00788
AATATGGC	-0.0866
AGTGCACA	-0.217
CAAAATGC	0.0958
AGCCTGTC	-0.211
AGAGAGCC	-0.113
ATGTTTTA	0.173
AGCATCTG	-0.162
TAACCTGA	0.00914
TTGATCAA	0.181
ACGGACGA	0.0449
CAGTAACA	0.0927
CCAAGCCC	-0.239
GTTGCGGA	-0.0156
TACAACCA	0.135
CTTTTATA	0.178
ACGAATCC	0.153
AGCTCTCC	-0.29
CCGCAGTC	-0.0875
CCTTACAG	-0.0515
ATTATGGC	0.0901
CAAAATGA	0.251

Sequence	PBM E-score
GTGGTATA	0.0731
AACATAAT	0.246
CCTTATCC	-0.224
CCCCCTGA	-0.273
ACGAGCAA	-0.194
AGGGGGCA	-0.303
CGATCCCA	-0.146
AAGAAACT	0.0695
ATCTGTTA	0.16
CTATCGTA	0.179
CAATTTTC	-0.00958
AGATCCTC	-0.28
ACCATGAG	-0.171
CAATGAAC	0.0418
ACACCACG	-0.0337
CTACGGAG	-0.148
GCCAGACC	-0.174
AGGGCTTG	-0.0617
CAAGCTAC	-0.223
CGGGATAG	-0.118
AGCTGGAG	-0.304
ATGCGCCC	0.0613
ATCGTTTA	0.224
CGTTGGGA	-0.00116
GACAGTAA	0.118

Sequence	PBM E-score
TGAATAAA	0.257
ATGAAGGG	-0.175
ACAATTCC	0.134
ACAACGAA	0.0473
CGCCGAAG	0.0651
ACCACTGG	0.07
GCCCAGGC	-0.318
ACTGCAAT	0.0816
ACTCGCGA	0.168
GACGCGCC	0.101
AGCAGCAG	0.00412
CGACCACA	-0.165
CCGTGTCG	0.0544
ACAGAGCC	-0.106
GTCAACTA	0.163
ACAGCGGT	-0.0574
GGCGTTAA	0.0974
ATCACGGA	0.157
CTACGTCA	0.493
CACGTTAG	0.123
CACCAATC	0.0604
ACGAGTCT	-0.282
CTGGCAGA	-0.0915
AGAGCGCG	0.0175
ATCTCAAC	0.194

Sequence	PBM E-score
CCCTATTA	0.0881
ACAGGGTG	-0.311
CAGGCCAA	-0.178
CCAAAGCG	-0.0706
ATATTGGG	-0.0314
AGTTAACT	0.17
CATGTCAA	0.161
GAATCAGC	0.0669
AATGACCC	-0.0671
CCCCTATA	-0.199
AATACGCG	0.0532
TATCATCA	0.341
ACTCGATA	0.0503
CATCGAAA	0.0768
AATGTCGG	0.099
AACTATGG	-0.12
GCTAGGCC	-0.214
AGTATTAT	0.0534
AGAACTTC	-0.165
CTATTTGA	0.209
GAAGATAC	0.0689
TAATGTCA	0.356
CCCACCCA	0.132
AACTAGGA	5e-05
AGGACAGG	-0.313

Sequence	PBM E-score
CAAAAATG	0.133
AAAGGTTG	-0.17
CCTGACGC	-0.0402
CTATCACC	-0.283
AGATCCCA	-0.103
AGACGCTC	-0.306
CTTCTTGA	0.0097
CTTTACAA	0.0843
AAATACGT	0.251
CTCTGCGA	0.058
CTCGTTAC	0.0262
TATGTCGA	0.156
AAGGCTCC	-0.273
CCGACCCC	-0.233
CTTGTCTA	0.048
AACGAACG	0.0731
AGATTGTC	-0.0488
GGAGTCAA	-0.218
ACCAGAGA	-0.0391
GGCGAATA	-0.0715
GCACTAAA	0.162
GTTAACGA	0.001
ACTGGACG	-0.142
CAGCTGGA	-0.0466
CGACGAGC	-0.276

Sequence	PBM E-score
ACTGGGGC	-0.292
CCTTAAGC	-0.263
TCGGAGAA	-0.0708
AGGACATG	-0.116
TCGAGCAA	0.119
GGCTGACC	-0.314
ATAGGCGA	-0.0483
GATAACCA	-0.0596
AACAATCG	0.0521
CGGTCTAC	-0.0943
CGTTAGTA	0.169
AACTAGTG	-0.147
CGTCCGAG	-0.117
CAATCCTA	-0.117
AGTCGGGG	-0.219
AGACCTAG	-0.128
CCCCTAGC	-0.391
GGCACGCA	-0.0289
ACAGTAAC	0.12
ACGCGGGG	0.0909
CACTGCTA	-0.0601
CATCTACC	-0.0048
ATAGTGCG	0.074
AACACGGA	0.108
ACTAAGTA	0.0364

Sequence	PBM E-score
AAGGGCGC	0.0762
CCGGCCAC	-0.225
AGGTATGC	0.111
CAGCGTTA	0.0435
TAAATAAA	0.289
CGGACTTA	-0.255
GACAGGTC	-0.271
GCAGGCGA	-0.102
ATGTAGAG	-0.0171
ATCCATCG	-0.212
CCCTCTAG	-0.245
CACAATGA	0.172
CAAAATTG	0.147
AAGTCTGG	-0.109
ATCATATG	0.254
CAGCAGCA	-0.0545
AGTCTGCA	-0.279
GATAACGA	0.175
GACTCGCA	-0.0728
CTCAAACC	-0.103
AATGGCGG	-0.312
ATGCTGCG	-0.139
CCATCTTA	0.0188
CACAGTAG	0.0631
CGAGGGAG	-0.307

Sequence	PBM E-score
ACTAGTTG	-0.193
GTACAGAC	-0.00208
AATCGGTC	0.00079
CCCTCTGC	-0.346
CCGATACA	0.0458
CCATAGCA	-0.131
ATAAAACA	0.144
ACCTCGTA	-0.0151
CGCCACAC	0.0682
TAGGGGCA	-0.31
CTTTAAAC	0.0604
CGGATGAA	0.127
GCTCTTCA	-0.104
CATACTCA	0.0905
AACCCGGC	-0.1
AGTCGGGA	-0.173
GACTGCGC	-0.131
AGTGATAA	0.144
AAGATTCG	0.241
